# Source: PMC4336329 (PLoS ONE, 2015)
# The whole screen tested about 310,000 compounds, of which about 14,000 (4.5%) showed an effect of 50% or more. Effects have a minus sign here. This is one part of the list.
# Target: human ether-à-go-go-related gene (hERG) potassium channel (human, UniProt Q12809)
# Assay: primary screen, population patch clamp on CHO cells stably expressing hERG
# 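Note: peak tail current of the secondary pulse compared with the same well before compound.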
# Chain of human ether-à-go-go-related gene (hERG) potassium channel (Q12809 whole entry, looked up): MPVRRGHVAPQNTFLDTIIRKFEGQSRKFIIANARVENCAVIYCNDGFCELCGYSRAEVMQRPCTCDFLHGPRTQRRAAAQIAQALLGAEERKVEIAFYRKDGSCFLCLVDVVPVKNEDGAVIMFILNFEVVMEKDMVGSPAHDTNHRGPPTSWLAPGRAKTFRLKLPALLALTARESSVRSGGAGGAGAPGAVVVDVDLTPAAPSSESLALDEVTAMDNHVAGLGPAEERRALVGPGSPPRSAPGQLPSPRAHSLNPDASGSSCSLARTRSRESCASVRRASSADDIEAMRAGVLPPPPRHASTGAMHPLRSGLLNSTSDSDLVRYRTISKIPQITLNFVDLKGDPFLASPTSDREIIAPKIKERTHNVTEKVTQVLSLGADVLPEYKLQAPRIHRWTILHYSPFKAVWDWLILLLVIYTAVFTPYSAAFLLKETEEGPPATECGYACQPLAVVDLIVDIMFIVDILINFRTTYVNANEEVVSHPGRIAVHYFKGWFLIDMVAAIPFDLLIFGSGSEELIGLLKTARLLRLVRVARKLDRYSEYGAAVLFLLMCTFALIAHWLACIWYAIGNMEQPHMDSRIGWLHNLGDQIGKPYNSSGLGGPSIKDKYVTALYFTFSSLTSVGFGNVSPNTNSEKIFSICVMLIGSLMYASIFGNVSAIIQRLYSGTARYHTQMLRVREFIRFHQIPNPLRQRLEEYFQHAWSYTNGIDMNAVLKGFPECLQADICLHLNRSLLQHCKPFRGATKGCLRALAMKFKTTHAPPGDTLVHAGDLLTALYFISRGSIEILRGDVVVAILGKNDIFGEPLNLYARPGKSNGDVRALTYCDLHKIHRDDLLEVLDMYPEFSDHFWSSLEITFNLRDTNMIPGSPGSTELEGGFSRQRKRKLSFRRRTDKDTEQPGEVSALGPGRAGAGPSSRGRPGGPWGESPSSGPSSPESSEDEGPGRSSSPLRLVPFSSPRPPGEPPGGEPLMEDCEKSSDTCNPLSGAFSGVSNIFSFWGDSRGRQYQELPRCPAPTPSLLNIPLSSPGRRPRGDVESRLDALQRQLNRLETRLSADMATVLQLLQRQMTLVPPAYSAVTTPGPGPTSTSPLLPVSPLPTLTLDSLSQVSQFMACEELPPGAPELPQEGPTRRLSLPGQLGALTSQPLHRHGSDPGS
row,Compound,"hERG current change (%, negative = inhibition) at 10uM [%]"
1,CCOc1cc(NC(=S)NCCCN2CCOCC2)c(OCC)cc1NC(=O)c1ccccc1,26
2,CCOc1ccccc1NC(=S)N1CCN(c2cccc(C)c2C)CC1,8.15
3,C/C(=N\OC(=O)Nc1ccc(Cl)cc1)c1ncc(C(F)(F)F)cc1N1CCOCC1,-6.53
4,CCOC(=O)c1cccc(S(=O)(=O)N2CCCC2)c1,8.7
5,CSc1ccccc1OCc1cc(C(=O)NC(C)CCn2cccn2)no1 (stereo not drawn),-0.424
6,CCc1ccc(C(=O)N2CCN(S(=O)(=O)c3sc(C(=O)O)c(C)c3C(=O)O)CC2)cc1,11.2
7,O=C1NC2(CCCCO2)CO1 (stereo not drawn),13.5
8,Cc1ccc(NC(=O)CSc2nnc(-c3ccncc3)n2N)cc1C,11.7
9,COC(=O)c1[nH]c2c(c1C)C(=O)CCC2,21.1
10,CCN(CC)c1ccc2ccc(=O)oc2c1,2.55
11,Cc1ccc(OCc2cc(C(=O)N3CCN(CC(=O)NC(C)C)CC3)no2)cn1,18.5
12,Cc1ccc(NC(=O)CCC(=O)NNC(=O)CCc2ccccc2)c(C)c1,16.7
13,COc1ccc(/C(O)=C2/C(=O)C(=O)N(c3ncccn3)C2c2ccc(C(C)(C)C)cc2)cc1 (stereo not drawn),-2.49
14,COc1ccc(OC)c(N=CC2=C(O)CC(C)(C)CC2=O)c1,0.766
15,CNC(=S)N=Nc1c(O)[nH]c2ccc(C(C)C)cc12,3.79
16,CCN(CC)CCN(C)C(=O)CCc1nnc(-c2ccc(C)s2)o1,-7.35
17,Cn1c(=O)c2c(ncn2CC(COCc2ccccc2Cl)OCc2ccccc2Cl)n(C)c1=O (stereo not drawn),-33.6
18,O=C(Cc1ccccc1)NNC(=S)NC(=O)c1cccnc1,14.7
19,Cc1cccc(C)c1NC(=O)C1=C(O)c2sccc2N(C)S1(=O)=O,7.42
20,COC(=O)[C@H](CC(C)C)NC(=O)NC1CCCc2ccccc21 (stereo partly drawn),15
21,COc1ccc(C)cc1NC(=O)CSc1nnc(COc2ccc(C)cc2)n1Cc1ccco1,-27.1
22,COc1ccc(CNC(=O)C(C)Sc2nc3ccccc3c(=O)n2CC2CCCO2)cc1 (stereo not drawn),-78.7
23,Cc1ccc2cc3c(nc2c1)OCC3,2.26

row,Compound,"hERG current change (%, negative = inhibition) at 10uM [%]"
1,O=S(=O)(c1ccc2c(c1)CCCN2)N1CCCC2CCCCC21 (stereo not drawn),-1.49
2,CC(C)C(OC(=O)Cn1nnc2ccccc21)C(=O)NC1CCCC1 (stereo not drawn),4.65
3,Oc1cccc(C(=S)N2CCCCC2)c1,6.67
4,Cc1ccc(SCCC(=O)Nc2ccccc2C(=O)N2CCOCC2)cc1,-6.5
5,CC(C)(C)c1ccc(C(=O)NC(=S)N2CCCC2)cc1,19.4
6,Cc1ccc(C(=O)O)cc1NC(=S)NC(=O)c1ccc(-c2ccc(Cl)cc2)o1,5.42
7,O=C(CSc1nc2[nH]c(=O)cc(O)c2s1)Nc1ccc(Cl)c(C(F)(F)F)c1,2.18
8,Cc1cc(C)c(S(=O)(=O)Nc2ccc(O)c(Sc3ncn[nH]3)c2)cc1C,0.694
9,COc1cc(CN2CCN(Cc3ccc(C(F)(F)F)cc3)CC2)cc(OC)c1OC.O=C(O)C(=O)O,-54.1
10,Cc1nc2cc(Nc3ccncc3)ccc2s1,-30.1
11,CC12CCC(=O)N1C(C(=O)NNC(=O)c1ccccc1Cl)CS2 (stereo not drawn),6.4
12,Cc1onc(-c2c(F)cccc2Cl)c1C(=O)ONC(=O)c1ccco1,-9.99
13,Cc1ccc(C(=O)Nc2cccc(NC(=O)c3cccnc3)c2)cc1,6.03
14,Cc1ccc(NS(=O)(=O)c2ccc(-c3ccc(=O)[nH]n3)o2)cc1Cl,16.1
15,O=c1[nH]c2ccccc2n1Cc1ccccc1,0.674
16,CC1=C(C(=O)Nc2ccc(Cl)cc2C(=O)N2CCC(C(N)=O)CC2)SCCO1,12.1
17,Cc1ccc(N2C(=O)C(CN(C)C)C2c2ccccc2)cc1 (stereo not drawn),-33.1
18,COC(=O)c1ccc(NN=Nc2ccc(C)cc2)cc1,1.46
19,Cc1cnc(NC(=O)C2=C([O-])c3ccccc3S(=O)(=O)N2C)s1.O.[Na+],11
20,C/C(=N/NC(=O)CN1CCN(Cc2ccccc2Cl)CC1)c1ccco1,-25.4
21,COC(=O)c1ccc(CNC(=O)CSC(C)C(=O)Nc2cc(C)on2)cc1 (stereo not drawn),-6.33
22,N/C(=N\OC(=O)c1ccco1)c1cccc(Br)c1,-7.94
